This note sets out measurements from PMC4336329 (PLoS ONE, 2015).

SMILES strings stand for the structures. Screen size: about 310,000 compounds; about 14,000 (4.5%) showed an effect of 50% or more. The effect is printed as a negative number. Some of the results follow. Where a SMILES comes first, the peptide text is derived from it. [ ]: non-standard residue; d: D form. The star is where a group is joined. Phg = N[CH](C(=O)O)c1ccccc1; Cbz = O=C(OCc1ccccc1)*
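Note: peak tail current of the secondary pulse compared with the same well before compound.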

Sequence of human ether-à-go-go-related gene (hERG) potassium channel (Q12809 whole entry, looked up): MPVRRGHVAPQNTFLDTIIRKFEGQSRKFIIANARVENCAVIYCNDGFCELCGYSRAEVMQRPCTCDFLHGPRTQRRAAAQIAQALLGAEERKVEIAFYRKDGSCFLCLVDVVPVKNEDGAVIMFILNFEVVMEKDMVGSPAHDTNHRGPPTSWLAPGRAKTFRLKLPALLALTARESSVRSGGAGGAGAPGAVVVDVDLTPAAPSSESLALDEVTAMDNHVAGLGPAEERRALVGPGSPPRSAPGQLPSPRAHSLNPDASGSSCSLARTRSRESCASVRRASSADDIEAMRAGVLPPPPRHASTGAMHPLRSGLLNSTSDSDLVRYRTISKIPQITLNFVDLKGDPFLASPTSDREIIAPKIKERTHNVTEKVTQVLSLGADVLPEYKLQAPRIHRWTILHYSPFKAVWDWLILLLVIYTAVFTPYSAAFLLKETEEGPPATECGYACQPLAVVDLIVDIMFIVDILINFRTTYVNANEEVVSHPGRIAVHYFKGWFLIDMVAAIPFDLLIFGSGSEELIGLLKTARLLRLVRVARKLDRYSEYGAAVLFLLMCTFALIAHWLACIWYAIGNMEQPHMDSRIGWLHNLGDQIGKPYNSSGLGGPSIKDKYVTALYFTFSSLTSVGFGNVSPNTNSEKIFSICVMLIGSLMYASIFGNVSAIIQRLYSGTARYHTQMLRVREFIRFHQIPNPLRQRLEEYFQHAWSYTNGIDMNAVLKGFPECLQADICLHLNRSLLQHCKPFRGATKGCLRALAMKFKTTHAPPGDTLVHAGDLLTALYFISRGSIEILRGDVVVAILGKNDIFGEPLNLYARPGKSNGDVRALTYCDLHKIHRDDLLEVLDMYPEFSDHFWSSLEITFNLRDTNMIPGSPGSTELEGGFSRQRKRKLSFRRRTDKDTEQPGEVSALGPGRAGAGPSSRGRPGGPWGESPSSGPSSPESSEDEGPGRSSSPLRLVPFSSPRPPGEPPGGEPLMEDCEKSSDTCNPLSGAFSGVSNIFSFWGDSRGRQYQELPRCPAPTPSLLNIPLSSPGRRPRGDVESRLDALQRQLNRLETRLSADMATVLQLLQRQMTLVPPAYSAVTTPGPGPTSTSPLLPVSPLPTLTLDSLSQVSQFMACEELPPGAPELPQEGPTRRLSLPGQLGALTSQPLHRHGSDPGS

This experiment addresses human ether-à-go-go-related gene (hERG) potassium channel (human, UniProt Q12809). Kind of experiment: primary screen, population patch clamp on CHO cells stably expressing hERG.
Regarding `Cc1cc(C(=O)COC(=O)c2ccc(N)c([N+](=O)[O-])c2)c(C)n1-c1ccc2c(c1)OCO2`, the “hERG current change (%, negative = inhibition) at 10uM” value worked out at 6.01%.
The value for `COc1ccc(CSc2nnc(C)n2N)cc1Br` was 4.67%; that for `CN1CCN(CCCn2cnc3c(=O)oc4ccccc4c32)CC1` was 8.19%.
To `Cc1ccccc1C(=O)NNC(=O)c1ccncc1` belongs 10.6%; to `Cc1ccc(-c2csc(/C(C#N)=C(\O)CN3CCN(C(=O)c4ccco4)CC3)n2)cc1`, 0.609%.
To `CC(C)c1ccc(CNn2cnnc2)cc1` belongs -4.85%; to `Cc1c(N=Nc2c(O)n(Cc3ccccc3)c(=O)[nH]c2=O)c(=O)n(-c2ccccc2)n1C`, -11.4%; to `Cc1ccc(NC(=S)N2CCN(c3ccccc3F)CC2)c(C)c1`, 14%.
As to `COc1ccccc1-c1nnc(SC2CCc3ccccc3NC2=O)s1` (centres unmarked), the “hERG current change (%, negative = inhibition) at 10uM” value is on record as 9.02%.
To `COc1ccc(C2C=C(c3ccccc3)Nc3ncnn32)cc1` (centres unmarked) belongs -57.4%.
The value for `COc1ccc(NC(=O)Nc2cccc([N+](=O)[O-])c2)cc1Cl` was -7.77%; that for `O=C(NCC(c1ccco1)N1CCc2ccccc21)c1ccccc1Cl` (centres unmarked) was -60.2%.
The value for `Cc1ccc(C)c(OCC(=O)OCC(=O)Nc2c(C)nn(-c3ccccc3)c2C)c1` was -5.33%; that for `O=C(NCC1CCCO1)c1ccc2c(c1)N(Cc1ccccc1)C(=O)CS2` (centres unmarked) was -31.9%.
Turning to `Cc1cccc(Cn2c(C(C)O)nc3ccccc32)c1` (centres unmarked), the “hERG current change (%, negative = inhibition) at 10uM” value stood at 5.37%.
The value for `CC(C)(C)N1CC23C=CC(C[C@@H]2C1=O)O3` (some centres unmarked) was 0.587%.
The value for `Cc1cccc(NC(=O)c2ccc(-n3cccn3)c([N+](=O)[O-])c2)c1` was -20.4%; that for `COc1ccc2cc3c(N)c(C(=O)NCc4ccco4)sc3nc2c1` was -12%.
As to `Fc1cccc(CCN2CCNC[C@@H]2CC2CCCCC2)c1`, the “hERG current change (%, negative = inhibition) at 10uM” value is reported as -19.1%.
For the molecule `COc1ccc(-c2ccc(/C=N/N3C(=O)C4C5C=CC(C6CC56)C4C3=O)o2)c([N+](=O)[O-])c1` (centres unmarked), the “hERG current change (%, negative = inhibition) at 10uM” value was -58.9%.
To `O=c1c2cnn(-c3ccccc3)c2ncn1Cc1cccnc1` belongs -2.1%; to `Br.C1=C(c2ccco2)N2CCN=C2S1`, 1.91%; to `CC(C)(C)NS(=O)(=O)c1ccc(CCC(=O)NCc2ccc3c(c2)OCO3)cc1`, -26.2%.
To `CC(C)CCn1c(Cl)nc2c1c(=O)n(C)c(=O)n2C` belongs -4.57%; to `CCOC(=O)[C@@H]1[C@H]2COc3ccccc3[C@@H]2N2C(=O)N(c3ccc(OC)cc3)C(=O)[C@]12C`, -6.02%.
To `COc1cc(Br)cc(C=Nc2cccc(C(F)(F)F)c2)c1O` belongs 4.79%.
As to `O=C(CCl)N1N=C(c2ccco2)CC1c1cccs1` (centres unmarked), the “hERG current change (%, negative = inhibition) at 10uM” value is recorded as -3.6%.
To `CC(Oc1cc(C(F)(F)F)cc(C(F)(F)F)c1)C(=O)NC(N)=O` (centres unmarked) belongs -9.42%.
On to `COc1ccc(NC(=O)CSCC(=O)Nc2ccccc2C(=O)N2CCCCC2)cc1`, for which the “hERG current change (%, negative = inhibition) at 10uM” value is 1.04%.
To `COc1cccc(/C=C/C(=O)NNC(=O)CCN2CCN(Cc3ccccc3)CC2)c1` belongs -36.7%.
To `O=C(NC1CCCCC1)C(=S)N1CCOCC1` belongs 6.33%; to `CCN(CC)C(=O)Cn1cnc2sc(C(=O)Nc3cc(OC)c(OC)c(OC)c3)c(C)c2c1=O`, 14.5%.
In the case of `O=C(CNC(=O)c1ccc(Cl)cc1Cl)NCc1ccccn1`, the “hERG current change (%, negative = inhibition) at 10uM” value is given as 3.7%.
Turning to `Cc1cc2c(=O)n(C)c(SCC(=O)Nc3cccc(O)c3)nc2s1`, the “hERG current change (%, negative = inhibition) at 10uM” value amounted to 1.81%.
The value for `COc1cc2c(cc1OC)CC(=O)NC=C2` was 13.1%; that for `O=C1C(=O)N(CCO)C(c2cccc(F)c2)/C1=C(\O)c1ccc(Cl)cc1` (centres unmarked) was 0.95%; that for `COc1cc2c(cc1OC)C(c1cc(C)ccc1C)CC(=O)N2` (centres unmarked) was 9.15%.
The value for `Cc1cc(C)c(NC(=S)NCCCSC2CCCCC2)c(C)c1` was 11.2%.
To `O=C(OCn1ncc(Br)c(Br)c1=O)c1c(F)cccc1F` belongs 14.9%; to `COc1ccc(-c2nnc(SCc3cccnc3)o2)cc1`, -19.8%; to `CN1CCN(C(=O)c2ccc3c(c2)N(Cc2ccccc2)CCS3)CC1`, -27.2%.
With `O=C(NCc1ccc(Cl)cc1)N1CCc2ccccc2C1`, the “hERG current change (%, negative = inhibition) at 10uM” value came to 5.41%.
Turning to `O=C(NCn1ccc(=O)[nH]c1=S)c1ccccc1`, the “hERG current change (%, negative = inhibition) at 10uM” value amounted to 7.64%.
To `COC(=O)c1ccc(C23CC4(C2)[C@H](CN(C)[C@@H]4c2ccccc2)C3c2ccccc2)cc1` (some centres unmarked) belongs -2.82%.
Take `O=C(O)CCCSc1nccn1-c1ccccc1`: the “hERG current change (%, negative = inhibition) at 10uM” value is given as 22.3%.
With `CN(Cc1ccccc1)S(=O)(=O)c1ccc(Cl)c(C(=O)NCCc2ccccn2)c1`, the “hERG current change (%, negative = inhibition) at 10uM” value is -61.8%.
The value for `Cc1ccc(S(=O)(=O)N(C)CC(=O)NCCCn2ccnc2)cc1` was 9.92%; that for `COc1ccccc1N1CCN(C(=O)CSc2nnc(NC(=O)c3ccco3)s2)CC1` was 13.6%.
On to `COCC(=O)Nc1nnc(SCC(=O)N2CCCCC2)s1`, for which the “hERG current change (%, negative = inhibition) at 10uM” value was 17.9%.
On to `Cc1ccc2nc(SCC(=O)Nc3c(C)n(C)n(-c4ccccc4)c3=O)[nH]c2c1`, for which the “hERG current change (%, negative = inhibition) at 10uM” value was 4.39%.
The value for `CCN1C(=O)NC(=O)/C(=C\c2ccc(N3CCOCC3)cc2OC)C1=O` was 13.7%; that for `O=C(CSc1ccccc1)Nc1ccc(N2CCOCC2)cc1` was 2.98%; that for `COC(=O)c1cc(S(=O)(=O)NCC2CCN(CCc3cccs3)CC2)cn1C` was -49.6%.
With `O=C(CN1C(=O)NC2(CCCCC2)C1=O)Nc1cccc2ncccc12`, the “hERG current change (%, negative = inhibition) at 10uM” value stood at 7.41%.
To `O=C(NC(=O)N1CCCCC1)c1ccc(Cl)cc1` belongs 15.7%.
`O=C(CCCOc1cccc(Br)c1)NCCOc1ccccc1`: the “hERG current change (%, negative = inhibition) at 10uM” value is -19.9%.
To `Cc1ccc(C(=O)c2ccc(N3CCN(C)CC3)c([N+](=O)[O-])c2)cc1` belongs -68.8%.
With `CCn1c(SCC(=O)NC2(C#N)CCCCC2)nc2ccccc2c1=O`, the “hERG current change (%, negative = inhibition) at 10uM” value was -5.52%.
The value for `Fc1ccc(-[n+]2nc(Nc3ccccc3)sc2-c2cccc(Cl)c2Cl)cc1.[Cl-]` was 8%.
Consider `CCN(CC(=O)Nc1c(F)cccc1F)C(=O)Cc1csc(-c2ccccc2)n1`, for which the “hERG current change (%, negative = inhibition) at 10uM” value is listed as -13.8%.
To `Cc1cc(C)cc(N(C(=O)CNC(=O)c2ccco2)C(C(=O)NC2CCCCC2)c2cccnc2)c1` (centres unmarked) belongs 22.1%.
With `COC(=O)C1=CN(Cc2ccc(C)cc2)C=C(C(=O)OC)C1c1ccc(F)c(F)c1`, the “hERG current change (%, negative = inhibition) at 10uM” value came out at 7.48%.
Consider `O=C(COc1ccccc1Cl)Nc1nnc(S(=O)(=O)N2CCCCCC2)s1`, for which the “hERG current change (%, negative = inhibition) at 10uM” value is 7.96%.
To `Cc1sc2nc(CN3CCOCC3)[nH]c(=O)c2c1-c1ccccc1` belongs 2.19%; to `COc1cc(NC(=O)COC(=O)CO/N=C(\C)c2ccc3c(c2)OCO3)cc(OC)c1OC`, 9.08%.
The value for `CC1CCCCC1NC(=O)c1cccc(NC2=NC3CS(=O)(=O)CC3S2)c1` (centres unmarked) was -12.2%; that for `C/C(=N\O)C(C)(C)Nc1ccc(Cl)cc1` was -0.0105%.
`CCOc1ccccc1NC(=S)Nn1cnnc1`: the “hERG current change (%, negative = inhibition) at 10uM” value is reported as 15.2%.
To `CCOC(=O)COn1c(=O)c(-c2ccc(F)cc2)[n+]([O-])c2ccccc21` belongs 5.49%.
The value for `COc1ccc(CNC(=O)NCCc2c[nH]c3ccccc23)cc1` was -2.66%; that for `COc1ccc(/C=N/NC(=O)c2cc(-c3ccccc3)nc3ccccc23)c(C(=O)O)c1OC` was 14.6%.
With `O=C(Cc1ccccc1)N1CCN=C1SCc1cccc([N+](=O)[O-])c1`, the “hERG current change (%, negative = inhibition) at 10uM” value is given as -22.6%.
With `Cc1c(C(=O)OCc2ccccc2)nnn1-c1nonc1N`, the “hERG current change (%, negative = inhibition) at 10uM” value is given as -2.14%.
The value for `Nc1ccc(Oc2ncccn2)cc1` was 13.5%; that for `O=C(CCCN1C(=O)S/C(=C\C=C\c2ccccc2)C1=O)Nc1ccc(O)cc1` was -2.47%.
Turning to `Cc1nc(SCC(=O)NC(=O)NC2CCCCC2)nc(C)c1C`, the “hERG current change (%, negative = inhibition) at 10uM” value amounted to 10%.
The value for `COCCNC(=S)NN=C1CCCCC1` was 0.671%.
The value for `COc1ccc(CNC(=O)CN2C(=O)COc3ccc(S(=O)(=O)N4CCC(C)CC4)cc32)cc1` was -9.64%; that for `Nc1ccccc1SSc1ccccc1N` was 27.7%; that for `COC(=O)C(Cc1ccc(O)cc1)NC(=O)C(C)NC(=O)c1ccc(C(C)(C)C)cc1` (centres unmarked) was -12.8%.
In the case of `O=C(O)C(NC(=O)C1CCCN1C(=O)OCc1ccccc1)c1ccccc1` (stereo not drawn) (Cbz-Pro-[Phg]-OH; configuration not given here), the “hERG current change (%, negative = inhibition) at 10uM” value is listed as 17.4%.
In the case of `O=C1C(=O)N(CNc2cccnc2)c2ccccc21`, the “hERG current change (%, negative = inhibition) at 10uM” value is reported as 6.87%.
With `O=C(COC(=O)c1cncc(Br)c1)Nc1ccc2c(c1)OCO2`, the “hERG current change (%, negative = inhibition) at 10uM” value was -0.617%.
The value for `O=C(c1ccco1)N1CCN(C(=O)C2CC(=O)N(c3ccc(Cl)cc3)C2)CC1` (centres unmarked) was -75.4%; that for `O=C(Nc1cccnc1)c1ccccc1-c1nc(-c2ccccc2F)no1` was -16.4%.
The value for `CC(C)C[C@H]1COCCS(=O)(=O)N1Cc1cccc(F)c1` was 4.49%; that for `O=C(CSCCO)Nc1cccc2ccccc12` was 13.7%.
The value for `Cc1c(C(=O)Nc2ccc3c(c2)CCC3)cccc1[N+](=O)[O-]` was -13%; that for `CN(CCC#N)C(=O)COc1ccc(Br)cc1Cl` was 13.8%.
